{
  "source": "PubChem BioAssay AID686978",
  "about": "(National Center for Advancing Translational Sciences (NCATS), 2013)",
  "note": "The campaign covered roughly 420,000 compounds. About 64,000 (15%) were called active. The inconclusive results got no clear call from the source; some entries with a clear call stand among them for comparison. Calls come from the whole dose curve; as a rule, active = well fitted inhibition curve with a large enough effect; inconclusive = small, poorly fitted or top-dose-only effect; inactive = flat fitted curve, though single readings scatter. No potency is given beside an inconclusive call; the fits are too rough. % is set by controls: 0 for no effect and ±100 for the full control effect; potency is the fitted concentration of half-maximal effect; tags give direction and shape of the fitted curve.",
  "data": [
    {"assay": "qHTS for Inhibitors of human tyrosyl-DNA phosphodiesterase 1 (TDP1): qHTS in cells in absence of CPT; note: nearly all actives have a fitted effect of over 55% in size", "conditions": "DT40 Tdp1-/- hTDP1 cells, no CPT, ATP luminescence, 48 h; activity change, negative = growth inhibition: at 46.2 µM (top of the series) unless noted", "method_in_brief": "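Compound effects on proliferation are scored in DT40 Tdp1-/-;hTDP1 cells in the absence of CPT. ATP levels (CellTiter-Glo luminescence) are recorded after a ≥48 hr, 37 °C incubation.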", "values": [
      {"smiles": "CCc1ccccc1NS(=O)(=O)c1ccc2c(c1)C(C)(C)C(=O)N2C", "Potency": "inconclusive [inhibitor, partial curve]"},
      {"smiles": "CCOC(=O)c1c(NC(=O)COC(=O)/C=C/c2ccccc2)sc(C(=O)NC)c1C", "Potency": "inactive"},
      {"smiles": "CC(=O)c1ccc(OC2(C)CCN(Cc3ccc4c(c3)OCCO4)C2)cc1", "note": "(configuration not stated)", "Potency": "inactive"},
      {"smiles": "COc1ccc(CCNc2ncnc3c2nnn3Cc2ccccc2)cc1OC", "Potency": "inconclusive [inhibitor, full curve]"},
      {"smiles": "CCN(CC(=O)NCc1ccc(Cl)cc1)C(=O)CCc1ccccc1", "Potency": "inconclusive [inhibitor, single point]"},
      {"smiles": "O=C(O)c1ccc(COc2ccccc2C=C2C(=O)c3ccccc3C2=O)cc1", "Potency": "inactive"},
      {"smiles": "COc1ccc(CNC(=O)Cn2c(=O)cc(C)c3c(C)nn(-c4cccc(Cl)c4C)c32)cc1", "Potency": "inconclusive [inhibitor, full curve]"},
      {"smiles": "Cc1ccccc1OC1C(=O)N(CC2CCCO2)C1c1ccc2c(c1)OCO2", "note": "(configuration not stated)", "Potency": "active: 13 µM"},
      {"smiles": "CSc1nsc(SCC(=O)Nc2ccc(C(=O)O)cc2)n1", "Potency": "inactive"},
      {"smiles": "CCOc1ccc(Oc2nc(NCC(C)C)nc(OC)n2)nn1", "Potency": "inactive"},
      {"smiles": "Cc1ccc2c(c1)N(CCCC(=O)NCc1cccnc1)C(=O)CO2", "Potency": "inactive"},
      {"smiles": "Fc1ccc(CSc2nc(NCc3ccccc3)c3ccccc3n2)cc1", "Potency": "active: 16.4 µM"},
      {"smiles": "COc1ccc(-c2cc(C(=O)Nc3cccc(O)c3)on2)cc1OC", "Potency": "inactive"},
      {"smiles": "CC(=NO)c1cc(Br)c2cccc3c2c1CC3", "Potency": "inconclusive [inhibitor, single point]"},
      {"smiles": "CN(CC(=O)Nc1ccc(F)cc1)c1ccc(S(=O)(=O)N2CCCCC2)cc1[N+](=O)[O-]", "Potency": "inconclusive [inhibitor, single point]"},
      {"smiles": "C#CCNC(=O)C1=C[C@H](c2cn(C(C)=O)c3ccccc23)C[C@H](OCc2ccc(CO)cc2)O1", "Potency": "active: 16.4 µM"},
      {"smiles": "COC(=O)c1ccc(NC(=O)CSc2nc3ncccc3[nH]2)cc1", "Potency": "active: 20.6 µM"},
      {"smiles": "CCC(C)c1ccc2oc(-c3ccc(NC(=O)c4cc5ccccc5o4)cc3)nc2c1", "note": "(configuration not stated)", "Potency": "inconclusive [inhibitor, single point]"},
      {"smiles": "CN[C@@H]1[C@@H](O)[C@@H](O[C@@H]2[C@@H](O)[C@H](OC3OC(CN)=CCC3N)[C@@H](N)C[C@H]2N)OC[C@]1(C)O", "note": "(some centres not stated)", "Potency": "inactive"},
      {"smiles": "N#C/C(=C\\c1ccc(N2CCOCC2)cc1)c1ccccc1", "Potency": "active: 14.6 µM"},
      {"smiles": "N#CC1(NC(=O)COc2ccc3ccc(=O)oc3c2)CCCCC1", "Potency": "inactive"},
      {"smiles": "Cc1cccc(-c2nn3c(=O)cc(CN4CCN(C(=O)/C=C/c5ccccc5)CC4)nc3s2)c1", "Potency": "inconclusive [inhibitor, full curve, poor fit]"},
      {"smiles": "CCN1CCCC(OC(=O)c2cc(-c3ccc(C)cc3)nc3ccccc23)C1", "note": "(configuration not stated)", "Potency": "active: 16.4 µM"},
      {"smiles": "Cc1ccc(-c2nc3c(C)cc(Br)cn3c2Cc2ccsc2)cc1", "Potency": "inconclusive [inhibitor, single point]"},
      {"smiles": "CCC(C)NC(=O)c1cc2cc3ccc(OC)cc3nc2o1", "note": "(configuration not stated)", "Potency": "inconclusive [inhibitor, single point]"},
      {"smiles": "Cc1cc(C)cc(Cn2c(C)c(C(=O)N(C)Cc3ccc(F)cc3)sc2=O)c1", "Potency": "inconclusive [inhibitor, single point]"},
      {"smiles": "Cc1ccc(-c2csc(NC(=O)CSc3nc(C)cs3)n2)cc1", "Potency": "active: 16.4 µM"},
      {"smiles": "C=CCn1c(CSCc2ccccc2)nnc1SCC(=O)NCc1ccccc1", "activity change, negative = growth inhibition": "inconclusive: -33.3% [inhibitor]"},
      {"smiles": "NN=C(NN=Cc1ccccc1)c1ccccc1", "Potency": "active: 20.6 µM"},
      {"smiles": "O=C(c1ccccc1F)N1CCN(C2CCC(c3ccccc3)CC2)CC1", "note": "(configuration not stated)", "Potency": "inconclusive [inhibitor, single point]"},
      {"smiles": "Cn1c(=O)[nH]c2cc(-c3noc(-c4ccc(Br)cc4)n3)ccc21", "Potency": "inactive"},
      {"smiles": "CCOc1ccccc1N1CCN(C(=O)/C=C/c2cccc([N+](=O)[O-])c2)CC1", "Potency": "inconclusive [inhibitor, single point]"},
      {"smiles": "CCCCN1CC(=O)N2[C@H]3c4cc(Br)ccc4OC[C@@H]3[C@H](C(=O)OCC)[C@]2(C)C1=O", "Potency": "inconclusive [inhibitor, single point]"},
      {"smiles": "CC(=O)Oc1ccccc1C(=O)Oc1ccc(/C=N/n2cnnc2)cc1", "Potency": "inconclusive [inhibitor, partial curve]"},
      {"smiles": "Cc1ccc(N2C(N)=C(C#N)C(c3cccs3)C3=C2CC(C)(C)CC3=O)cc1", "note": "(configuration not stated)", "Potency": "inconclusive [inhibitor, single point]"},
      {"smiles": "CCOC(=O)NC(=O)COC(=O)c1ccc(Sc2ncn[nH]2)c([N+](=O)[O-])c1", "Potency": "inactive"},
      {"smiles": "CC(Oc1cc2oc(=O)c3c(c2cc1Cl)CCC3)C(=O)NCCN1CCOCC1", "note": "(configuration not stated)", "Potency": "inactive"},
      {"smiles": "CSc1ccccc1NC(=O)CN1CCN(c2ccccn2)CC1", "Potency": "inconclusive [inhibitor, single point]"},
      {"smiles": "CN(CC(=O)Nc1ccc(Cl)c(C(F)(F)F)c1)C(=O)C1CC(=O)N(CCc2ccccc2)C1", "note": "(configuration not stated)", "Potency": "inconclusive [inhibitor, single point]"},
      {"smiles": "COc1ccccc1/C=C/C(=O)Oc1cccc2cccnc12", "Potency": "active: 16.4 µM"},
      {"smiles": "Cc1ccc2cc(C#N)c(N3CCN(C(=O)c4ccccc4)CC3)nc2c1", "Potency": "active: 10.3 µM"},
      {"smiles": "COc1ccc(C2NN=C(c3c[nH]c4ccccc34)C2O)cc1", "note": "(configuration not stated)", "Potency": "inconclusive [inhibitor, partial curve]"},
      {"smiles": "CCCSc1nnc(-c2c[nH]c3ccccc23)n1CC", "Potency": "inconclusive [inhibitor, single point]"},
      {"smiles": "O=c1oc2ccccc2cc1N1CCOCC1", "Potency": "inactive"},
      {"smiles": "O=C(CSC(=S)N1CCCCC1)Nc1nc(-c2ccccc2)c(-c2ccccc2)o1", "Potency": "inconclusive [inhibitor, single point]"},
      {"smiles": "CS(=O)(=O)N(Cc1ccccc1Cl)c1ccc(C(=O)NCc2cccnc2)cc1", "Potency": "active: 14.6 µM"},
      {"smiles": "O=C(NCc1ccc2c(c1)OCO2)c1ccc2c(c1)S(=O)(=O)c1ccccc1C2=O", "Potency": "inconclusive [inhibitor, single point]"}
    ]}
  ]
}
